Paper doi:10.1101/241067 (bioRxiv, 2017)

Biological target: the molecule itself
Assay: cryo-EM structure

B1: Cep3ΔN ([…]) (domain or fragment)
chain: not shown
  binding result: binds
